The list shows a part of the results. The list includes weakly bound sequences.

For this test, the target named is T1, MBP-FoxP3dN (UniProt Q99JB6).
T1 sequence: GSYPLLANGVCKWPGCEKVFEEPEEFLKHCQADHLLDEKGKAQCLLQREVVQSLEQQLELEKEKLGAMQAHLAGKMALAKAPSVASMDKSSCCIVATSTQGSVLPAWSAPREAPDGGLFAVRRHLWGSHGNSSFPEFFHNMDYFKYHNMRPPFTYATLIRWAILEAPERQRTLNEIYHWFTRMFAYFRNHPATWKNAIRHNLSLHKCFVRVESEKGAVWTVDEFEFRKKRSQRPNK
Description: PD-seq (MBP pull-down with sequencing). The settings on record: 20 mM Tris-HCl pH 7.5, 100 mM NaCl, 1.5 mM MgCl2, 0.4 uM protein, 0.1 uM dsDNA library, 30 min, room temperature, amylose pull-down; high values mean tight binding; double strand, one strand shown.
Turning to “GATGATTGTTCTCCCAGCTGATGAATTATATACTTCGAGTAAACAAATTTTCCTAATCTTTCTGTTCAAGCGCCATCTAC”, the binding signal (RPM ratio (pull-down/input)) was found to be 0.724.

For the sequence “GATGATTGTTCTCCCAGCTGATGAATTCGTTCTGTCGAGTAAACAAATTTTCCTAATCTTTCTGTTCAAGCGCCATCTAC”, the binding signal (RPM ratio (pull-down/input)) was determined as 0.346.

Regarding “GATGATTGTTCTCCCAGCTGATGAATTCACATAGTCGAGTAAACAAATTTTCCTAATCTTTCTGTTCAAGCGCCATCTAC”, the binding signal (RPM ratio (pull-down/input)) worked out at 0.335. The same measure for “GATGATTGTTCTCCCAGCTGATGAATTTGTCATTTCGAGTAAACAAATTTTCCTAATCTTTCTGTTCAAGCGCCATCTAC”: 5.68. The same measure for “GATGATTGTTCTCCCAGCTGATGAATTTCTAGTTTCGAGTAAACAAATTTTCCTAATCTTTCTGTTCAAGCGCCATCTAC”: 0.285. The same measure for “GATGATTGTTCTCCCAGCTGATGAATTGGAAGTCTCGAGTAAACAAATTTTCCTAATCTTTCTGTTCAAGCGCCATCTAC”: 0.343; for “GATGATTGTTCTCCCAGCTGATGAATTTTGACGATCGAGTAAACAAATTTTCCTAATCTTTCTGTTCAAGCGCCATCTAC”: 0.34; for “GATGATTGTTCTCCCAGCTGATGAATTAACGAGTTCGAGTAAACAAATTTTCCTAATCTTTCTGTTCAAGCGCCATCTAC”: 0.361.

“GATGATTGTTCTCCCAGCTGATGAATTGTACCTGTCGAGTAAACAAATTTTCCTAATCTTTCTGTTCAAGCGCCATCTAC”: the binding signal (RPM ratio (pull-down/input)) was determined as 0.413. With “GATGATTGTTCTCCCAGCTGATGAATTGAGTACTTCGAGTAAACAAATTTTCCTAATCTTTCTGTTCAAGCGCCATCTAC”, the binding signal (RPM ratio (pull-down/input)) stood at 0.524. The same measure for “GATGATTGTTCTCCCAGCTGATGAATTTTTTCGATCGAGTAAACAAATTTTCCTAATCTTTCTGTTCAAGCGCCATCTAC”: 0.217; for “GATGATTGTTCTCCCAGCTGATGAATTAAGCACTTCGAGTAAACAAATTTTCCTAATCTTTCTGTTCAAGCGCCATCTAC”: 0.716; for “GATGATTGTTCTCCCAGCTGATGAATTATCTGGTTCGAGTAAACAAATTTTCCTAATCTTTCTGTTCAAGCGCCATCTAC”: 0.309.

Consider “GATGATTGTTCTCCCAGCTGATGAATTCACAGCATCGAGTAAACAAATTTTCCTAATCTTTCTGTTCAAGCGCCATCTAC”, for which the binding signal (RPM ratio (pull-down/input)) worked out at 0.801. The same measure for “GATGATTGTTCTCCCAGCTGATGAATTGAAGATATCGAGTAAACAAATTTTCCTAATCTTTCTGTTCAAGCGCCATCTAC”: 0.353; for “GATGATTGTTCTCCCAGCTGATGAATTCTATTGCTCGAGTAAACAAATTTTCCTAATCTTTCTGTTCAAGCGCCATCTAC”: 1.47; for “GATGATTGTTCTCCCAGCTGATGAATTAGTATGCTCGAGTAAACAAATTTTCCTAATCTTTCTGTTCAAGCGCCATCTAC”: 3.14.

As for “GATGATTGTTCTCCCAGCTGATGAATTGTTGTACTCGAGTAAACAAATTTTCCTAATCTTTCTGTTCAAGCGCCATCTAC”, the binding signal (RPM ratio (pull-down/input)) was determined as 3.07.
